# Measured values: PubChem BioAssay AID686979 (National Center for Advancing Translational Sciences (NCATS), 2013)
# “And” between values parts separate entries of the source, which are not always exact repeats. Equal values may be shown once. Out of some 420,000 compounds screened, about 50,000 (12%) were called active. Inconclusive means that the source gave no clear call. Such entries were picked first, then a sample of the others. Calls come from the whole dose curve; as a rule, active = well fitted inhibition curve with a large enough effect; inconclusive = small, poorly fitted or top-dose-only effect; inactive = flat fitted curve, though single readings scatter. Potencies beside an inconclusive call are fits to weak or partial responses and may not hold up.
# Assay: qHTS for Inhibitors of human tyrosyl-DNA phosphodiesterase 1 (TDP1): qHTS in cells in presence of CPT; note: nearly all actives have a fitted effect of over 55% in size
# Details: chicken DT40 Tdp1-/-;hTDP1 cells + 20 nM CPT, ATP luminescence, 48 h; activity change, negative = growth inhibition: at 46.2 µM (top of the series) unless noted
# How it was run: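 Chicken DT40 Tdp1-/- cells complemented with human TDP1, 400 cells/well, exposed to compounds plus 20 nM camptothecin for at least 48 h at 37 C; viability read as ATP content by CellTiter-Glo luminescence.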
# % is set by controls: 0 for no effect and ±100 for the full control effect; potency is the fitted concentration of half-maximal effect; tags give direction and shape of the fitted curve.
Compound,"activity change, negative = growth inhibition",Potency
COc1ccccc1-c1nc(SCC(=O)NCc2ccccc2)c2c(=O)n(C)c(=O)n(C)c2n1,inactive: -12%,
CCOc1ccc(CNC(=O)CS(=O)(=O)c2cccc3nsnc23)cc1,inactive: -1.5%,
CCN(Cc1cc2cc(OC)ccc2[nH]c1=O)C(=O)c1ccncc1,inactive: -7.15%,
Cn1ccnc1SCC(=O)Nc1cccc(S(=O)(=O)N2CCCCC2)c1,inactive: 2.98%,
COc1ccc(-c2[nH]ncc2CNC(C)c2ccccc2Cl)cc1F (configuration not stated),,active: 16.4 µM
CCOC(=O)c1c(N)sn(-c2ccccc2C)c1=S,,active: 23.1 µM
COc1ccc(/C=C2\SC(=S)NC2=O)cc1OS(=O)(=O)c1ccc(NC(C)=O)cc1,,"inconclusive: 29.1 µM [inhibitor, single point]"
COCCn1c(SCC(=O)Nc2cc(C(C)(C)C)nn2-c2ccccc2)nc2ccccc2c1=O,,"inconclusive: 23.1 µM [inhibitor, single point]"
CC(=O)N1c2ccc(S(=O)(=O)NCC3CCC(C(=O)N4CCC(C)CC4)CC3)cc2CC1C (configuration not stated),,"inconclusive: 29.1 µM [inhibitor, single point]"
Cc1ccccc1NC(=O)C1CCCN(S(=O)(=O)c2cccc3cccnc23)C1 (configuration not stated),,"inconclusive: 29.1 µM [inhibitor, single point]"
CCOC(=O)Cc1csc(NC(=O)CSc2nnc(-c3ccncc3)o2)n1,,"inconclusive: 0.731 µM [inhibitor, full curve, poor fit]"
Clc1ccc(COn2c(-c3ccc(Cl)cc3)nc3ccccc32)cc1,,"inconclusive: 29.1 µM [inhibitor, single point]"
COc1ccc(NC(=O)c2cc(-c3ccco3)on2)cc1OC,inactive: -5.47%,
CCCCCCCN1C(N(C)C)=NC[C@@H]1Cc1ccccc1,,active: 11.6 µM
CSc1cc(-c2ccc(Cl)cc2)c(C(=O)NC(C)C)s1,,active: 9.2 µM
Cc1cc2nc(-c3ccc(NC(=O)c4ccccc4F)cc3)oc2cc1C,,"inconclusive: 18.4 µM [inhibitor, single point]"
CCC(C)c1ccc(N(CC(=O)NC(C)(C)C)C(=O)CNC(=O)c2cccs2)cc1 (configuration not stated),,"inconclusive: 18.4 µM [inhibitor, partial curve]"
COc1ccccc1-c1noc(-c2ccc(NC3CCCC3)c([N+](=O)[O-])c2)n1,,active: 18.4 µM
CCc1cnc2c(c1SCC(=O)NCc1ccc(F)cc1)c(=O)n(C)c(=O)n2C,,"inconclusive: 20.6 µM [inhibitor, single point]"
Cc1cccc(CCN(C(=O)c2csnn2)C(C(=O)NC2CCCC2)c2ccco2)c1 (configuration not stated),,active: 14.6 µM
COc1cccc(NC(=O)CSc2nnc(-c3ccco3)c(-c3ccco3)n2)c1,,"inconclusive: 14.6 µM [inhibitor, partial curve, poor fit]"
Cc1cccc2cc(CN(CCCO)C(=O)Nc3cccc(Cl)c3)c(=O)[nH]c12,,active: 23.1 µM
O=C(Cn1ncc2c([nH]c3ccccc32)c1=O)N1CCOCC1,inactive: 12%,
CN(C(=O)c1cccc(NC(=O)Cc2ccc([N+](=O)[O-])cc2)c1)C1CCC1,,"inconclusive: 29.1 µM [inhibitor, single point]"

Compound,"activity change, negative = growth inhibition",Potency
CN(C)c1ccc(N=NS(=O)(=O)O)cc1,,active: 21.7 µM
Cc1cccc(C(=O)Nc2ccc3nc(SCCOc4ccccc4)sc3c2)c1,inconclusive: -37.2% [inhibitor],
COc1ccc(C2C(C(=O)NCCN3CCOCC3)c3ccccc3C(=O)N2C2CCCCC2)cc1 (configuration not stated),,active: 7.31 µM
Cc1nn(-c2ccccc2)c2c1C(c1ccc(Br)s1)C(C#N)=C(N)O2 (configuration not stated),,"inconclusive: 20.6 µM [inhibitor, single point]"
COc1ccc2nc(-c3ccccc3)cc(C(=O)OCC(=O)N3CC(C)OC(C)C3)c2c1 (configuration not stated),,"inconclusive: 29.1 µM [inhibitor, single point]"
COC(=O)c1cc(=O)nc2sc(-c3ccc(F)cc3)nn12,,active: 23.1 µM
COc1cc(C(=O)NNC(=O)/C=C/c2ccco2)cc(OC)c1OC,inactive: 6.27%,
CCOC(=O)C1(Cc2cccc(OC)c2)CCN(CC=C(C)C)CC1,,"inconclusive: 23.1 µM [inhibitor, single point]"
CC[n+]1cc(C)ccc1/C=C/c1ccc(N(C)C)cc1,,active: 0.0291 µM
CCc1ccc2c(c1)C(=O)CCC2,,"inconclusive: 5.17 µM [inhibitor, single point]"
O=C(Nc1cccnc1)C1CC(c2ccc(Cl)c(Cl)c2)=NO1 (configuration not stated),,"inconclusive: 20.6 µM [inhibitor, single point]"
Cc1ccc(Cn2c(NCCc3ccccc3)nc3c2c(=O)n(C)c(=O)n3C)cc1,,active: 6.51 µM
CCCCn1nnnc1C(c1cc2ccccc2o1)N(CCC#N)Cc1ccccc1 (configuration not stated),,active: 16.4 µM
[O-][n+]1cccc2cccc(O)c21,,"inconclusive: 29.1 µM [inhibitor, single point]"
C(=C\c1c[nH]c2ccccc12)/c1ccnc2ccccc12,,"inconclusive: 31.6 µM [inhibitor, single point]"
COc1ccc(/C=N/NC(=O)C(=O)N2CCN(c3ccccc3OC)CC2)cc1,,"inconclusive: 16.4 µM [inhibitor, single point]"
Cc1ccc(NC(=O)CN2C(=O)NC(Cc3ccccc3)C2=O)cc1Cl (configuration not stated),,"inconclusive: 23.1 µM [inhibitor, single point]"
COc1ccc(C2=NS(=O)(=O)N(C)C(C(=O)Nc3ccc(C)cc3)=C2)cc1,,"inconclusive: 29.1 µM [inhibitor, single point]"
O=C(NC(CC1CCCCC1)C(=O)O)c1ccccc1 (configuration not stated),inactive: -12.8%,
COc1ccc(Cl)cc1NC(=O)Cn1c(=O)c(-c2ccccc2NC(C)=O)nc2ccccc21,,active: 13 µM
O=C(Nc1cc(Sc2ccccn2)cc([N+](=O)[O-])c1)c1ccc(Cl)cc1,,"inconclusive: 20.6 µM [inhibitor, single point]"
CCOC(=O)CSc1n[nH]c(-c2ccco2)n1,,"inconclusive: 29.1 µM [inhibitor, single point]"
OC(c1cccc(Cl)c1)c1nc(/C=C/c2ccc(C(F)(F)F)cc2)cs1 (configuration not stated),,active: 23.1 µM
CSc1cccc(NC(=S)N2CCC(c3ccccc3)C2)c1 (configuration not stated),inactive: -16.5%,

Compound,"activity change, negative = growth inhibition",Potency
COc1ccc(C(=O)CSc2nc(C(C)(C)C)nc3ccccc23)cc1,,"inconclusive: 29.1 µM [inhibitor, single point]"
CCCCCSc1nc2c(c(=O)[nH]c(=O)n2C)n1C(C)C,,"inconclusive: 29.1 µM [inhibitor, single point]"
COc1ccccc1N(CC(=O)NCCSc1ccccn1)S(=O)(=O)c1ccccc1,,"inconclusive: 29.1 µM [inhibitor, single point]"
Cc1ccc(C)c(Cn2c(C(=O)O)c(CNCc3cccs3)c3ccccc32)c1,,"inconclusive: 25.9 µM [inhibitor, single point]"
Cc1ccc(Cn2nnc3c(=O)[nH]c(C4CCN(S(=O)(=O)c5ccc(C)cc5)CC4)nc32)cc1,inactive: -5.72%,
Cc1cc(C)c(OCC(=O)Nc2ccc(S(=O)(=O)N3CCCC3)cc2)c(C)c1,,"inconclusive: 6.51 µM [inhibitor, partial curve, poor fit]"
O=C(NNC(=O)c1ccccc1Br)c1ccc(Cl)c(Cl)c1,inactive: -2.68%,
CN1/C(=C\C(=S)NC(=O)c2ccc([N+](=O)[O-])cc2)C(C)(C)c2ccccc21,,active: 16.4 µM
Cc1ccc2cc(CCNC(=O)C3CCCCC3)c(=O)[nH]c2c1C,inconclusive: -29.1% [inhibitor],
COC(=O)c1ccccc1NC(=O)Cn1c(=O)cc(C)c2c(C)nn(C)c21,inactive: -26.9%,
Cc1cc(C)c2c(c1)c(C)cc1nnc(SCC(=O)c3ccc(F)cc3)n12,,"inconclusive: 20.6 µM [inhibitor, single point]"
CCC(Sc1nc(N)cc(N)n1)C(=O)O (configuration not stated),inactive: -12.6%,
CCCCC(=O)N1CCc2cc(OC)c(OC)cc2C1COc1ccc(OC)cc1 (configuration not stated),,active: 16.4 µM
Cc1cccc(NC(=O)CSc2nnc(-c3ccco3)c(-c3ccco3)n2)c1C,inactive: -7.13%,
Cc1ccc(C(C(=O)NC2CCCCC2)N(Cc2ccco2)C(=O)C2COc3ccccc3O2)o1 (configuration not stated),,"inconclusive: 29.1 µM [inhibitor, single point]"
O=C(/C=C/c1ccco1)c1cccc([N+](=O)[O-])c1,,"inconclusive: 16.4 µM [inhibitor, single point]"
CC1Cc2cc(/C(O)=C3\C(=O)C(=O)N(Cc4cccnc4)C3c3ccccc3F)ccc2O1 (configuration not stated),,"inconclusive: 0.259 µM [inhibitor, full curve, poor fit]"
COc1ccc(NC(=O)CN2C(=O)COc3ccc(S(=O)(=O)N4CCCCC4)cc32)cc1OC,,"inconclusive: 16.4 µM [inhibitor, single point] and inconclusive: 29.1 µM [inhibitor, single point]"
COc1cccc(C(=O)N(c2ccc(C)cc2)C2C=CS(=O)(=O)C2)c1 (configuration not stated),inactive: -7.48%,
Cc1ccc2cc(C(c3nnnn3Cc3ccccc3)N3CCN(c4ccccc4)CC3)c(=O)[nH]c2c1 (configuration not stated),,active: 13 µM
Cc1ccc(-n2c(O)c(C=Nc3ccc(S(=O)(=O)Nc4ncccn4)cc3)c3ccccc3c2=O)cc1C,,"inconclusive: 23.1 µM [inhibitor, single point]"
Cc1ccc2c(c1)COc1c3ccc(C(=O)NC(C)C)cc3nn1-2,,"inconclusive: 23.1 µM [inhibitor, single point]"
C/C(=N\Nc1ccc([N+](=O)[O-])cc1)c1ccc(C#N)cc1,inactive: 6.16%,
CC1=Nc2cc(C(=O)NCC3CCCO3)ccc2Sc2ccc(C)cc21 (configuration not stated),,active: 0.58 µM
